Test results as given in the supplement of paper PMC3334620.
In all, about 33,000 sequences were measured (“E-score (-0.5 to 0.5)”: median about -0.011, highest 2% from about 0.28 on). The list shows a part of the results.

Molecular target: T1, Gcr1 (UniProt P07261)
T1 sequence: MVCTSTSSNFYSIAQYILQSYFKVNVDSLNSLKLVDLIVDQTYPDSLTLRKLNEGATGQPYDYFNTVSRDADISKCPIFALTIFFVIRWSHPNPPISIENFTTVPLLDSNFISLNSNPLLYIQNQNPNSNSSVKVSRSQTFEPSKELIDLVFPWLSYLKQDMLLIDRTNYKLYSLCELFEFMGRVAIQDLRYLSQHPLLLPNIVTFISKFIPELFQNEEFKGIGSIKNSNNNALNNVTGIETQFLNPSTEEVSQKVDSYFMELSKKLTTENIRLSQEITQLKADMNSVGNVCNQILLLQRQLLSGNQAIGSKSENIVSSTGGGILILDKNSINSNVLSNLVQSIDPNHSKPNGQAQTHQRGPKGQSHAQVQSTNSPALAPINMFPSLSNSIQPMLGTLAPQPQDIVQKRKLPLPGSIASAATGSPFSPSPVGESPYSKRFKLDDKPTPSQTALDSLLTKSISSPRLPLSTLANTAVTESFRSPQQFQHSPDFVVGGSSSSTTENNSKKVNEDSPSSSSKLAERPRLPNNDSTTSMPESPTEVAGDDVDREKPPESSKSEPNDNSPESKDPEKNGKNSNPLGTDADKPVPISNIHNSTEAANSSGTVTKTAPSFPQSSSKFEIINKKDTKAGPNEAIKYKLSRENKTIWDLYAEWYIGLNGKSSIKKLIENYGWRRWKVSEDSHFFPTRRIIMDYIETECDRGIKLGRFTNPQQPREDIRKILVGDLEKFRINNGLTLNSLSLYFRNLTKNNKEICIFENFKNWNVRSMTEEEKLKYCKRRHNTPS
Assay: PBM E-score (8-mer binding enrichment) (E-score (-0.5 to 0.5)); higher = stronger / more preferred TF binding; most listed sequences are background and not binding sites
Details: protein concentration: 100 nM; construct: GST-full length
Method: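 Universal 'all 10-mer' protein binding microarrays (Agilent AMADID 015681) probed with GST-tagged S. cerevisiae TFs (full-length or DBD) made by in vitro transcription/translation (PURExpress), about 100-200 nM. Bound TF was detected with fluorescent anti-GST. Each ungapped 8-mer (which stands for itself and its reverse complement) is scored by the PBM enrichment score (E-score), a modified Wilcoxon-Mann-Whitney statistic from -0.5 to +0.5, computed with the Universal PBM Analysis Suite. Scale: above 0.35 generally sequence-specific binding.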

Sequence	PBM E-score
CCGAAAAG	0.162
AGGGTCCC	0.277
ATCCCTGA	0.0556
ACGTAATG	-0.0746
AGCTTTGG	0.0729
AAACAGAT	0.16
GTTCGACA	0.0702
CAATATCC	-0.0114
AGGGCCAC	-0.243
AGTGCGGA	0.115
CCGGCTCC	0.0887
CTGTCTCA	-0.0202
CACGATAC	0.0775
GCGTTTTA	0.00422
CAGCCGAG	0.0411
CCATTTCC	-0.0631
AATTAAAT	0.0347
TAGTTGAA	0.0225
TATAGGCA	0.167
AAGTACCA	0.131
AGACTCCA	0.15
AATAATAA	0.152
TCACGCCA	-0.00387
GTCCAAGA	0.149
AAAACAAT	-0.139

Sequence	PBM E-score
CGTCCACC	-0.0259
GGTAAGGA	-0.218
ATTGCTTG	-0.0427
TGAAGCCA	-0.0656
AAGCTGGT	0.183
CCACGTTC	-0.144
ATAACAGC	-0.0429
CTCTCAAA	-0.0198
GGCTTAAA	-0.0412
GCGAGCGC	-0.0888
GCACTCAC	-0.272
GACTTCAC	-0.131
ATCCTTCA	0.00843
CATTGGGC	-0.0484
ACCCGATG	-0.0442
GCACAGCC	-0.14
TAAAAACA	0.124
AAGCCCGT	-0.0227
GTCTTGAA	0.0745
AAGACTAG	-0.125
CTTCAGCA	-0.0569
ATCTTTGA	-0.0179
GCCGACAA	0.00717
GACTCCGA	0.0546
GAGAAATC	-0.0896

Sequence	PBM E-score
ACGTCTCC	0.101
ACGTTGTG	0.111
CGGCGACA	0.0198
AATGGGAG	0.0925
TGGGTAAA	0.0715
CCAAACGC	0.122
ACCGCTGA	-0.0837
GGCATATA	0.0123
AGGTGGGA	-0.203
AATAAACA	0.102
GATCATGC	-0.0461
AATAGCAG	0.0707
AATCGGTG	-0.1
ATTCTATC	0.00132
AGGACACC	-0.0484
GTTCCAAA	0.302
CTAGGGTA	-0.116
ACCTCGAC	-0.215
GCCCGACC	-0.225
AGTAATGA	-0.0951
CGCGCCTC	0.0569
AGTAGATA	0.0938
AAGTCAGT	-0.051
AGGAAGTC	0.337
AAGGCAAG	-0.303

Sequence	PBM E-score
ACAGCGCG	-0.101
ATCTGTGC	-0.15
CGAGGAGA	-0.0605
ACATTGAT	0.202
GGGAAAAA	0.119
AGCCCACC	0.114
AGTTGCCC	0.00277
CCCGATCC	-0.14
GCATTTAC	-0.133
AATAGTTG	0.199
AAAACAAA	0.133
CGTCACGC	0.0174
CACGCCAC	-0.0186
AAGCACGA	-0.158
GAGGGCGA	-0.169
CTGATTCC	-0.0213
CAGAGGTC	-0.141
AGGTAACC	0.0371
CGGATTCC	0.463
GCTGGAAC	-0.0311
GCACGTGC	-0.067
ACACCAAA	0.0653
GCGTCTGA	0.245
AAAATCGA	-0.0278
ATACTATA	-0.0912

Sequence	PBM E-score
AAAATCCG	0.111
AACGATAT	0.0585
CGATGCGC	0.0541
CGTAAAAG	0.277
CAACTCAA	0.0769
CTGAGGCA	-0.169
CCGCGTAA	-0.0308
ATGCGCTA	0.0378
CTTAAGAC	-0.104
ACGGTCCT	-0.316
CGAAGAGC	-0.081
CGATCTTA	-0.045
TTACGGAA	0.141
TAGTCAAA	-0.0803
CATTGAGC	-0.158
CGGGGACA	-0.162
CACGCAAG	-0.161
ACTGCACC	0.014
GTTAGTCA	-0.0875
GCGTCAAC	-0.044
AGCTTGAT	-0.0733
CACTAAGC	-0.0075
ATAGCAAG	0.069
AACCGTGT	0.0252
AGTGCCGG	-0.0544

Sequence	PBM E-score
GTTTGCCA	-0.12
AAACCCAT	-0.0008
ACGAGACG	-0.00848
ATGATGGG	-0.00476
CTGACTGA	0.00818
AATGGACT	-0.0935
AGTCCTGA	0.176
GCTCTATA	-0.0304
CGGTTTAC	-0.242
TTTAGAAA	0.145
CGATCTCC	-0.0795
CAGCTAGC	-0.147
AGAACAAA	0.0755
CGCGCGAG	-0.0112
AATTATAT	0.195
AAAGTGGG	0.0574
GATACATA	-0.0594
CGCATGTC	-0.166
CTAATCTC	-0.00798
TCAGCTAA	-0.225
GACCTGAA	-0.0733
CACGAGAG	-0.108
AATGGGAT	0.28
CCAAGGGC	-0.269
AAACGTTA	-0.157

Sequence	PBM E-score
ACACCAGA	0.0664
CGTAACCA	0.063
CCTTCCCC	-0.122
CGGAACCG	0.18
ACTCAAAG	0.141
CCACCCGG	-0.118
AACAAACT	0.0877
ATGAGGTC	-0.16
AGTGGTCA	-0.00597
CAAACGAA	0.0386
AGCAAGCC	-0.272
CCGGATGA	0.112
AAGCGTGA	-0.237
CTCAGCGA	0.0232
CCTCGACC	-0.184
CTTTAATA	0.0353
ACATGCAG	0.0565
CTACCGAG	0.111
AACAGGTA	0.269
AATAGGCC	-0.127
CTAGTGGC	0.106
CGTCGAAC	-0.147
